# ChEMBL document CHEMBL1961873, “Compounds: GSK PKIS; Assays: Nanosyn kinase panel” (2012)
# For some assays here: The strong results were mostly taken out for another list; the other results follow. The entries are a selection whose mix differs from that of the whole data set.
# Assays:
# [1] = biological target: Homeodomain-interacting protein kinase 1 (Homo sapiens) (UniProt Q86Z02); conditions: at 0.1 µM
# [2] = biological target: Homeodomain-interacting protein kinase 1 (Homo sapiens) (UniProt Q86Z02); conditions: at 1 µM
# [3] = biological target: T1, Homeodomain-interacting protein kinase 4 (Homo sapiens) (UniProt Q8NE63); conditions: at 0.1 µM
# T1 sequence (whole entry): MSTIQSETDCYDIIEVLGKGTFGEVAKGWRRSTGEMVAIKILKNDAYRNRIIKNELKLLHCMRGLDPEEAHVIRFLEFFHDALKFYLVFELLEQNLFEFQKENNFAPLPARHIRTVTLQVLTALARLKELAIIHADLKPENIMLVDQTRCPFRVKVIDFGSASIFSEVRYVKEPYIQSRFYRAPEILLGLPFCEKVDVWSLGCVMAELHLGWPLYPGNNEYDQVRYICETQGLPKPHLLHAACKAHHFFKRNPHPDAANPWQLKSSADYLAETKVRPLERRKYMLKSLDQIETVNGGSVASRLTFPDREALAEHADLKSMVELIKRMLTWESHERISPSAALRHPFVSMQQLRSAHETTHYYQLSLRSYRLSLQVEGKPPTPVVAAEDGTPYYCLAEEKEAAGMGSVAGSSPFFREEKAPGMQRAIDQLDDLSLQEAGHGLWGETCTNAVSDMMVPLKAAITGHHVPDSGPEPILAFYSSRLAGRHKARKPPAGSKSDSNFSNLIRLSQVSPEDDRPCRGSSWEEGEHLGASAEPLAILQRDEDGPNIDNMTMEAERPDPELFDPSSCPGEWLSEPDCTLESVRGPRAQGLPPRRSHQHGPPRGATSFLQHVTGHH
# [4] = biological target: T1, Homeodomain-interacting protein kinase 4 (Homo sapiens); conditions: at 1 µM
# [5] = biological target: Mitogen-activated protein kinase 9 (Homo sapiens) (UniProt P45984); conditions: at 0.1 µM
# [6] = biological target: Mitogen-activated protein kinase 9 (Homo sapiens) (UniProt P45984); conditions: at 1 µM
# [7] = biological target: Mitogen-activated protein kinase 1 (Homo sapiens) (UniProt P28482); conditions: at 0.1 µM
# [8] = biological target: Mitogen-activated protein kinase 1 (Homo sapiens) (UniProt P28482); conditions: at 1 µM
# [9] = biological target: Mitogen-activated protein kinase 3 (Homo sapiens) (UniProt P27361); conditions: at 0.1 µM
# [10] = biological target: Mitogen-activated protein kinase 3 (Homo sapiens) (UniProt P27361); conditions: at 1 µM
# [11] = biological target: SRSF protein kinase 3 (Homo sapiens) (UniProt Q9UPE1); conditions: at 0.1 µM
# [12] = biological target: SRSF protein kinase 3 (Homo sapiens) (UniProt Q9UPE1); conditions: at 1 µM
# [13] = biological target: Mitogen-activated protein kinase 14 (Homo sapiens) (UniProt Q16539); conditions: at 0.1 µM
# [14] = biological target: Mitogen-activated protein kinase 14 (Homo sapiens) (UniProt Q16539); conditions: at 1 µM
# [15] = biological target: Mitogen-activated protein kinase 11 (Homo sapiens) (UniProt Q15759); conditions: at 0.1 µM
# [16] = biological target: Mitogen-activated protein kinase 11 (Homo sapiens) (UniProt Q15759); conditions: at 1 µM
# [17] = biological target: T2, Mitogen-activated protein kinase 13 (Homo sapiens) (UniProt O15264); conditions: at 0.1 µM
# T2 sequence (whole entry): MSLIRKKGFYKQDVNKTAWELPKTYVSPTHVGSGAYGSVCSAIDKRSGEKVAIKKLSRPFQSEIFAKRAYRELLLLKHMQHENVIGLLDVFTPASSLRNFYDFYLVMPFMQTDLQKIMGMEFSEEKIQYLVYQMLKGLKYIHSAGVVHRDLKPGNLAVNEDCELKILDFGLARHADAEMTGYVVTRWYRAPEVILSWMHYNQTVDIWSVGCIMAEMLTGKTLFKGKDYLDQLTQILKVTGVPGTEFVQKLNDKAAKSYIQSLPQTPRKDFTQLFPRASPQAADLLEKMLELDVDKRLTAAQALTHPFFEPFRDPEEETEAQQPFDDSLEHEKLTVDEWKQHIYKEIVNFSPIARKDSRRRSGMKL
# [18] = biological target: T2, Mitogen-activated protein kinase 13 (Homo sapiens); conditions: at 1 µM
# [19] = biological target: T3, Mitogen-activated protein kinase 12 (Homo sapiens) (UniProt P53778); conditions: at 0.1 µM
# T3 sequence (whole entry): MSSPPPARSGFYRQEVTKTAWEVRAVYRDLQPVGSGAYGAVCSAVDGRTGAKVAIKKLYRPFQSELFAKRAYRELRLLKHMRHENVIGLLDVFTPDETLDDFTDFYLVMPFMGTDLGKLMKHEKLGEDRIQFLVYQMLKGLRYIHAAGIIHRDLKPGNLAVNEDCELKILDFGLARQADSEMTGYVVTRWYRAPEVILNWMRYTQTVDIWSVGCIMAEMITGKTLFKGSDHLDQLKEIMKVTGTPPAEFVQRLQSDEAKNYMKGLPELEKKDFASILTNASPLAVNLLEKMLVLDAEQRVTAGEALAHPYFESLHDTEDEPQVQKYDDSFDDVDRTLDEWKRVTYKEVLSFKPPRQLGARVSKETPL
# [20] = biological target: Glycogen synthase kinase-3 beta (Homo sapiens) (UniProt P49841); conditions: at 1 µM;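 note: reported values are mean percent inhibition of GSK3B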
# Chain of UniProt P49841 (P49841 whole entry, looked up): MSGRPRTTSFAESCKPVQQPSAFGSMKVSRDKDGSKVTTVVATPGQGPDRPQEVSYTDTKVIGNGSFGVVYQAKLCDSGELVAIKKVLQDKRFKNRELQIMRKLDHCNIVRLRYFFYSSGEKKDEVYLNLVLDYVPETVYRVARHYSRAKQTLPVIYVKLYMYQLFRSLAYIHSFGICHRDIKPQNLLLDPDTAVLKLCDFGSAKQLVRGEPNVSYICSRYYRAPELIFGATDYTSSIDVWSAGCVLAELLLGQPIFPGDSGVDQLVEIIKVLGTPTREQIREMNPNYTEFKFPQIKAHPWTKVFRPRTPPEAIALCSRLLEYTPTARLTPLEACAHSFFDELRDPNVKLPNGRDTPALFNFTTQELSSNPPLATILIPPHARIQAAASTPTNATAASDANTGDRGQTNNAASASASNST
# Chain of UniProt P27361 (P27361 whole entry): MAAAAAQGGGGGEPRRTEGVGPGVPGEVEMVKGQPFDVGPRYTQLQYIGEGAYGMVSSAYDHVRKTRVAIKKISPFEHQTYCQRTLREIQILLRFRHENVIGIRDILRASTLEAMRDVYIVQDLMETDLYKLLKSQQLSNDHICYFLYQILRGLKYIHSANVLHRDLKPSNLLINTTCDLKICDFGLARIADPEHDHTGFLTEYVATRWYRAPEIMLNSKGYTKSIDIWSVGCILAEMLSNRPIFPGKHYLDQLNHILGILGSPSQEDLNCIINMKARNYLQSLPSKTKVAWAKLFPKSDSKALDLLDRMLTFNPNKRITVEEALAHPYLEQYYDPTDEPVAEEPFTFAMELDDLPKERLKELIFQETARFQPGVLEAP
# Chain of UniProt Q86Z02 (Q86Z02 whole entry, looked up): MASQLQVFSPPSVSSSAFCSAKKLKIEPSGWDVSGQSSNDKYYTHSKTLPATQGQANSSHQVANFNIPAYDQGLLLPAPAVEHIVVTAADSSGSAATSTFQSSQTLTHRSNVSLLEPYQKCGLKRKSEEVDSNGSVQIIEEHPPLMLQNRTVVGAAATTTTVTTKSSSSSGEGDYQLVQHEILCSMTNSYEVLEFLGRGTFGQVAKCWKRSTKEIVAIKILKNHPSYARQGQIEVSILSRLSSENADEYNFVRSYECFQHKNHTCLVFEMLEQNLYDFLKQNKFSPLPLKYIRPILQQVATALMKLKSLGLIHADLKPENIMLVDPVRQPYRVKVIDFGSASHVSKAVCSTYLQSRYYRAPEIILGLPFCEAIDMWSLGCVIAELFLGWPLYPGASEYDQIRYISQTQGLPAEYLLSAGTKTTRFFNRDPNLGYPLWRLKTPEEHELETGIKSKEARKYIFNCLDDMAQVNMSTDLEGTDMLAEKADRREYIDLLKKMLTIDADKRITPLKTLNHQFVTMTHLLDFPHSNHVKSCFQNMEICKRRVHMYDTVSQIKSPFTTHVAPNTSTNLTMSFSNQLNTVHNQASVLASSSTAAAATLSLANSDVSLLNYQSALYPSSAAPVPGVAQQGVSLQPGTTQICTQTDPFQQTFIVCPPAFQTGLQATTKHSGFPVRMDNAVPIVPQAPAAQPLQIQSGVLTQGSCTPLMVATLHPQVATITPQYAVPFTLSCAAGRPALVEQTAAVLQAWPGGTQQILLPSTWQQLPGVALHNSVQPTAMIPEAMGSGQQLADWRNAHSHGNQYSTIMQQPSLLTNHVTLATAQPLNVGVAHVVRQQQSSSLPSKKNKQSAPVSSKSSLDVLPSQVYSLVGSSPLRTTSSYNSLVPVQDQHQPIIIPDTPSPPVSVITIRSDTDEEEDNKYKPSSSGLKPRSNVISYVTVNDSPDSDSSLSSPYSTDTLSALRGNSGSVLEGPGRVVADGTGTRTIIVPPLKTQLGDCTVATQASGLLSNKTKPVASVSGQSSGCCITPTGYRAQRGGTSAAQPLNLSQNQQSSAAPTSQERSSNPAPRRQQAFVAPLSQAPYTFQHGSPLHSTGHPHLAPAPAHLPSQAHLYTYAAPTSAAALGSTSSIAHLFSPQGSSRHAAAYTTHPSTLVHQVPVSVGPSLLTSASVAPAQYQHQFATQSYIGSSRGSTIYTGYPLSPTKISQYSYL
# Chain of UniProt P45984 (P45984 whole entry, looked up): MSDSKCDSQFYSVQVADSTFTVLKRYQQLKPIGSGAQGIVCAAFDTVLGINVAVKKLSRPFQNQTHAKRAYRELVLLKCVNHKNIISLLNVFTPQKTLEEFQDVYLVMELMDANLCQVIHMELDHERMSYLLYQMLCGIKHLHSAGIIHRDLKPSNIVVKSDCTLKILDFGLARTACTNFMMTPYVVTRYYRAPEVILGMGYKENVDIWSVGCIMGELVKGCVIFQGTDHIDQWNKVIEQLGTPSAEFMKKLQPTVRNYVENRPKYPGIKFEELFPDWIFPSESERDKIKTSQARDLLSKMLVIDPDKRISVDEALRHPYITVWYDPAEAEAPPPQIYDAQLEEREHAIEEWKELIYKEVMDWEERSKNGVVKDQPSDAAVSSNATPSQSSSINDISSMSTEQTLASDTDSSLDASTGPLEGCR
# Chain of UniProt Q15759 (Q15759 whole entry): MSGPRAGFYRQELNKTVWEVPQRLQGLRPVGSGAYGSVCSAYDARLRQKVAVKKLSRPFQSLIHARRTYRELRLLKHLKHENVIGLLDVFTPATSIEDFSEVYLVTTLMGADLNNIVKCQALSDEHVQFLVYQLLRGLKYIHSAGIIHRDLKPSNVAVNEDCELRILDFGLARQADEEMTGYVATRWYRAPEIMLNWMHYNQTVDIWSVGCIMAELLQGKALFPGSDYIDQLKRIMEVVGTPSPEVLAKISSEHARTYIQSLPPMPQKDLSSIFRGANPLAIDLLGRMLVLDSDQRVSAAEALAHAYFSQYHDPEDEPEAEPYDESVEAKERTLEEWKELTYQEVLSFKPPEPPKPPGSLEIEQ
# Chain of UniProt P28482 (P28482 whole entry): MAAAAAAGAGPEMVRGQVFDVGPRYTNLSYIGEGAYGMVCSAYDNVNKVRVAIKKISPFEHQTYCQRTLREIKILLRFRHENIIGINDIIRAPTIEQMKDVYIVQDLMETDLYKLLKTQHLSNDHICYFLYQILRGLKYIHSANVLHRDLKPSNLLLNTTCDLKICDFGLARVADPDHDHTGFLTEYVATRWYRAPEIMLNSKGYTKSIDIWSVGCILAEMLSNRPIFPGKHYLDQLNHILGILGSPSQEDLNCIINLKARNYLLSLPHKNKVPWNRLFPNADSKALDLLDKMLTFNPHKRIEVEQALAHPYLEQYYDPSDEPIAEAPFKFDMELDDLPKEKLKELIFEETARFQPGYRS
# Chain of UniProt Q16539 (Q16539 whole entry): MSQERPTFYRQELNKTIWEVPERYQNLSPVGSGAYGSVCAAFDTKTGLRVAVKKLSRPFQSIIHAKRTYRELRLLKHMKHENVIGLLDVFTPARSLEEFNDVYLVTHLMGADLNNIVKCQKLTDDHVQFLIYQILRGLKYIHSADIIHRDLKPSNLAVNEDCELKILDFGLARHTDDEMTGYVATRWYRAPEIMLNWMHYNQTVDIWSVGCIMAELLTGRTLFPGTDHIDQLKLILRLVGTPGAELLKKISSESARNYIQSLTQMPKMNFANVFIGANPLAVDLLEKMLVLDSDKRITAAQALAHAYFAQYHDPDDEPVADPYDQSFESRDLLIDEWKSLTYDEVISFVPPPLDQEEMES
# Chain of UniProt Q9UPE1 (Q9UPE1 whole entry): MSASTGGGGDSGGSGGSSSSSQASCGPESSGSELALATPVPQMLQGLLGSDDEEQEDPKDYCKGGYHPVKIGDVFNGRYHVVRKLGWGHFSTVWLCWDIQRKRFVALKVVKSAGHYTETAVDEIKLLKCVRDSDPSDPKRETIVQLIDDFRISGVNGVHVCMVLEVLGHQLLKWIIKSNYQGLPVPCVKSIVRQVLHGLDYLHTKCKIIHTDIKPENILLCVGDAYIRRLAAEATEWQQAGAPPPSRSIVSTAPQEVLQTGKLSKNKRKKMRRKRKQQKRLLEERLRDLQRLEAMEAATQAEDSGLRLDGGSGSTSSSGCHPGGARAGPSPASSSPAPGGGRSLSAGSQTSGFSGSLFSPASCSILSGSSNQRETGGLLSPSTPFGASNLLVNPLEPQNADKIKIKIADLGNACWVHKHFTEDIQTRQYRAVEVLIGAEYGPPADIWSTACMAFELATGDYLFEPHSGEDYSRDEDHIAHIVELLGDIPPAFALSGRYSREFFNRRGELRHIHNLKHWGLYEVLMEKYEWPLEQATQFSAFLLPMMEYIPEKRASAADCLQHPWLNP
Compound,inhibition [1],inhibition [2],inhibition [3],inhibition [4],inhibition [5],inhibition [6],inhibition [7],inhibition [8],inhibition [9],inhibition [10],inhibition [11],inhibition [12],inhibition [13],inhibition [14],inhibition [15],inhibition [16],inhibition [17],inhibition [18],inhibition [19],inhibition [20]
O=C1NC(=O)C(c2ccccc2Cl)=C1Nc1cc(Cl)c(O)c(Cl)c1,3.16%,6.06%,2.48%,6.53%,0.6%,2.28%,5.19%,3.9%,1.83%,2.08%,1.01%,5.67%,2.4%,5.09%,2.74%,5.93%,2.21%,4.86%,0.28%,–
Cc1cccc(Oc2nccc(-c3c(-c4ccc(F)cc4)ncn3C3CCNCC3)n2)c1C,-2.37%,1.9%,-0.2%,0.42%,3.91%,11.8%,5.62%,7.49%,3.56%,3.01%,1.75%,-0.51%,–,–,34.4%,68.2%,3.97%,2.75%,3.14%,4.28%
CC(C)(C)c1ccc(Oc2nccc(-c3c(-c4ccc(F)cc4)ncn3C3CCNCC3)n2)cc1,-3.61%,-3.29%,-0.41%,0.77%,4.4%,10.4%,6.17%,15.8%,3.81%,11.1%,-1.69%,-0.95%,–,–,47.9%,–,4.42%,3.59%,3.38%,4.99%
O=C1NC(=O)C(c2cccc([N+](=O)[O-])c2)=C1Nc1cc(Cl)c(O)c(Cl)c1,-2.9%,-1.52%,-0.03%,1.09%,1.59%,1.1%,2.88%,4.35%,3.14%,2.24%,-1.26%,-0.59%,2.42%,6.98%,3.03%,1.62%,1.29%,-0.48%,1.04%,–
O=C(O)c1ccc(Oc2nccc(-c3c(-c4ccc(F)cc4)ncn3C3CCNCC3)n2)cc1,-0.41%,3.85%,1.02%,2.18%,3.63%,7.23%,6.73%,7%,3.47%,4.29%,3.8%,-1.52%,–,–,4.43%,14.8%,4.94%,6.2%,3.9%,1.41%
COc1ccccc1C1=C(Nc2ccccc2)C(=O)NC1=O,0.32%,0.24%,3.56%,9.56%,3.16%,4.12%,3.45%,5.04%,3.98%,2.72%,0.61%,9.64%,5.25%,13.6%,3.59%,5.91%,2.83%,3.46%,0.9%,–
CS(=O)(=O)c1ccc(Oc2nccc(-c3c(-c4ccc(F)cc4)ncn3C3CCNCC3)n2)cc1,-3.8%,-2.68%,-0.65%,-1.26%,4.02%,4.41%,6.86%,5.35%,3.8%,5.63%,-2.24%,0.18%,–,–,4.92%,15.5%,4.98%,3.28%,3.56%,2.96%
COc1ccccc1Oc1nccc(-c2c(-c3ccc(F)cc3)ncn2C2CCNCC2)n1,-1.71%,1.77%,-0.33%,1.1%,5.21%,5.77%,6.2%,6.59%,5.94%,3.82%,-1.68%,1.72%,–,–,26.4%,71.1%,5.27%,4.63%,3.76%,7.45%
Fc1ccc(-c2ncn(C3CCNCC3)c2-c2ccnc(Oc3cccc(F)c3)n2)cc1,-0.06%,3.58%,0.18%,5.01%,5.15%,13.1%,6.08%,7.34%,4.87%,5.44%,-0.5%,-0.04%,–,–,14.2%,54.6%,6.49%,–,4.93%,3.91%
Fc1ccc(-c2ncn(C3CCNCC3)c2-c2ccnc(Oc3cccc(C(F)(F)F)c3)n2)cc1,-4.44%,-0.28%,0.22%,0.14%,5.18%,5.84%,8.02%,8.71%,5.68%,5.11%,-2.9%,-0.93%,–,–,5.28%,20.2%,5.74%,4.72%,6.39%,2.16%
O=C1NC(=O)C(c2ccccc2)=C1Nc1ccccc1,2.23%,6.04%,2.95%,5.33%,4.39%,5.97%,6.12%,5.98%,3.91%,3.62%,-0.95%,-0.16%,5.29%,8.65%,5.95%,6.14%,3.54%,8.68%,1.66%,–
Fc1ccc(Oc2nccc(-c3c(-c4ccc(F)cc4)ncn3C3CCNCC3)n2)cc1,-3.81%,-2.21%,0.54%,2.88%,3.21%,6.96%,5.33%,7.56%,4.57%,6%,2.65%,-0.46%,–,–,5.66%,33.1%,4.75%,6.61%,3.85%,-1.66%
Fc1ccc(-c2ncn(C3CCNCC3)c2-c2ccnc(Oc3ccc(Cl)cc3)n2)cc1,-3.97%,-1.71%,-0.75%,0.62%,1.5%,6.17%,1.85%,3.48%,0.56%,2.88%,0.73%,0.55%,–,–,8.68%,42.5%,1.4%,0.44%,0.84%,1.86%
NC(=O)CCc1ccccc1Oc1nccc(-c2c(-c3ccc(F)cc3)ncn2C2CCNCC2)n1,-4.09%,-2.28%,-0.69%,0.56%,-5.14%,1.48%,-2.29%,-2.2%,0.76%,-0.69%,0.1%,0%,–,–,5.28%,30.4%,-1.72%,-2.56%,-2.24%,-0.49%
